The values that follow come from publication PMC7937711, “Development and Characterization of Nanobodies Targeting the Kupffer Cell” (Frontiers in Immunology, 2021).

This test deals with T1, recombinant mouse Clec4F (CLEC4F/CLECSF13), soluble extracellular domain Ala65-Gly548 (mouse) (UniProt P70194).
T1 sequence: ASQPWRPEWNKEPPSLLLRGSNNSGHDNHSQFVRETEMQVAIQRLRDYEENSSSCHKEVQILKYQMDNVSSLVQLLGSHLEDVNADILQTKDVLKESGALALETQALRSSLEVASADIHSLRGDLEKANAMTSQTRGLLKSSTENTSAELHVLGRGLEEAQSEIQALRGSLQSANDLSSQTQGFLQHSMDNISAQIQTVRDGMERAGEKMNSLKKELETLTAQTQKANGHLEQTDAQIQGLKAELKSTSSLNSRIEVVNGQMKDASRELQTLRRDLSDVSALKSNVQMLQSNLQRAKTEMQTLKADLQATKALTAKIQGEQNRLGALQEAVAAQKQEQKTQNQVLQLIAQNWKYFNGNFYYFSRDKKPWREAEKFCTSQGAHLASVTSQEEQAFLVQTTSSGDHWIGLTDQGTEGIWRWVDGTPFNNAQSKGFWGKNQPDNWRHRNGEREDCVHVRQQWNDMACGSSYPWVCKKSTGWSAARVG
Kind of test: SPR; Biacore T200; 400 RU of recombinant mouse Clec4F coupled to a CM5 chip; nanobodies flown at 30 ul/min at 1-400 nM; 1:1 binding model. (Surface plasmon resonance follows binding to a sensor surface in real time, without labels.)

The source holds more than one record for some entries. They are shown here; other results are not. The source may hold further records. Values that stand side by side seem to repeat one measurement on other runs, samples or individuals.

B1: Nb14.70 (VHH)
VHH: QVQLVESGGGLVQAGDSLSLVCTLPERSRFAVGWFRQASGKEREIVAAISWLGMNEYYGDSVKGRSTISRDNAKNTVRLQMDSLKREDTAVYYCAADYSLDNVRRTPRFWGQGTQVTVSS
Take B1: the Kd was 1.98 nM and 0.19 nM [columns of one line].

As a reminder, the Kd is the free concentration of one partner at which half of the binding sites on the other are occupied at equilibrium, for simple one-to-one binding.
